Laboratory results as given in PubChem BioAssay (NCATS).
Values joined by “and” are separate entries in the source; they are usually repeats but may differ in a detail not shown here. Equal entries are not always repeated. Inconclusive results, whose numbers are uncertain, are shown with a selection of clear calls. Potencies beside an inconclusive call are fits to weak or partial responses and may not hold up. Active and inactive are the calls of the source. Calls follow the shape of the dose curve; as a rule, active = well fitted activation curve with a large enough effect in the signal ratio, with a control signal flat (not every such curve was filed as active); inconclusive = small, poorly fitted or top-dose-only effect, or effect the other way, or a change in a side signal; inactive = flat fitted curve, though single readings scatter; the % refers to the signal ratio.

Test: qHTS Assay for Identification of Small Molecule Agonists for Hypoxia Response Element Signaling Pathway (AID 914); as to activation: top concentration of the series differs between compounds; % of control where 0% means no effect
Conditions: ME-180 (cervical carcinoma) HRE-bla reporter, beta-lactamase ratio, CoCl2, 17 h; activation: stronger effect = higher value
In short: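 Read-out: CCF4 FRET ratio of 460nm to 530nm emission (excitation 405nm) after 2.5 hours at room temperature, taken from HRE-bla ME-180 cells that had been exposed to compound and EC50 CoCl2 for 17 hours.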
Potency is read from the fitted curve at half-maximal effect; tags tell the direction and shape of the fitted curve or compound fluorescence and quenching.

Potency, inconclusive:
CC1(C)CNC(=O)c2sc(N3CCOCC3)nc2C1 3.98 µM [inhibitor, full curve], CCc1c(C(=O)O)[nH]c2ccc(Br)cc12 10 µM [inhibitor, partial curve], CN1CCN(c2ncc3nc(-c4cc(F)cc(F)c4)c(=O)n(C)c3n2)CC1 3.16 µM [activator, single point], C[C@]12CCC3c4ccc(O)cc4CCC3[C@@H]1CCC2=O (stereo partly drawn) 15.8 µM [inhibitor, partial curve] and 15.8 nM [inhibitor, full curve, poor fit], COc1cccc(Cn2c(=O)c(-c3cccc(C#N)c3)nc3cnc(N4CCOCC4)nc32)c1 3.98 µM [activator, single point], CN(CC(=O)O)Cc1c(O)c(Cl)cc(Cl)c1Cl 0.631 µM [inhibitor, single point], CCOP(=O)(c1ccccc1)C1(C#N)CCCC1 (stereo not drawn) 10 µM [activator, partial curve], CC1=C/C(=C(/c2ccc(O)c(C)c2)c2ccccc2C(=O)O)C=CC1=O 0.251 µM [inhibitor, partial curve], Oc1c(C=NCc2ccncc2)sc2ccccc12 7.94 µM [inhibitor, partial curve], N#Cc1cccc(NC(=O)N2CC[C@@]3(CCCN(C(=O)c4cc(C(F)(F)F)cc(C(F)(F)F)c4)C3)C2)c1 1.26 µM [inhibitor, partial curve], COc1ccc2nc(/N=C(\N)NC(=O)C(C)(C)C)nc(C)c2c1 10 µM [inhibitor, partial curve], CC[C@@H](c1ccccc1)n1c(=O)n2n(c1=O)[C@H]1[C@H](O)[C@H]3O[C@H]3C(=O)[C@H]1CC2 6.31 µM [inhibitor, single point], Clc1ccc(CSC2=NCCN2)cc1Cl 1 µM [inhibitor, single point], O=C(c1ccco1)N1CCN(c2ncnc3c2[nH]c2ccccc23)CC1 3.98 µM [inhibitor, partial curve]

Potency, active:
Cc1ccc(C(=O)/C=C/Nc2cccc(O)c2)cc1 10 µM

activation, inactive:
CC(C)Oc1ccc(/C(O)=C2/C(=O)C(=O)N(CCN(C)C)C2c2ccco2)cc1 (stereo not drawn) -2.15%, COC(=O)c1sc(NC(C)=O)c(C(=O)OC)c1C 21.1%, O=C(Nc1ccc2ncccc2c1)Nc1ccc2ncccc2c1 -12.2%, CCO[P@]1(=O)OC[C@@H]2O[C@H](n3cnc4c(N)ncnc43)[C@H](O)[C@@H]2O1 10.2%, O=C1C=C[C@@H](O)[C@H]2[C@@H]3C(=O)N(C[C@@H]4CCCO4)C(=O)[C@@H]3CC[C@H]12 -2.79%, CCOC(=O)C(C)(C)[C@H](O)C(C)C 11.4%, CCC(C(=O)Nc1ncn[nH]1)(C(F)(F)F)C(F)(F)F -10.1%, COc1ccc2c(c1OC)C(=O)OC2c1c(O)nc(SC)n(-c2ccccc2)c1=O (stereo not drawn) 1.25%, Cc1cc(C)c(S(=O)(=O)O)c(C)n1 11.7%

activation, inconclusive:
COCC(=O)N1CCC2(CC1)CN(C(=O)Nc1cccc(F)c1)C2 -29.9%, O=CN[C@@H](Cc1cnc[nH]1)C(=O)O -0.597%, C[C@H]1CC[C@H]2C(=O)N3[C@H](c4ccc(Br)cc4)[C@@H](C)CC[C@H]3C(=O)N2[C@@H]1c1ccc(Br)cc1 -12.5%, CCOC(=O)c1c(C)n(C)c2ccc(OC)c(NC(=O)CN3CCSCC3)c12 -29.2%, CCCCSCc1nc2nc(Cl)c(Cl)nc2[nH]1 -73.6%, C[C@H]1CC[C@H](C(=O)O)N[C@@H]1c1ccc(C#Cc2ccccc2)cc1 -5.58%, CC(=O)Oc1ccccc1C1OCCN1C(C)=O (stereo not drawn) -39.1%, Cc1cc(N2CCN(C3CCCC3)CC2)n2c(nc3ccccc32)c1C#N 178%, CN(C)C(CN1C(=O)C2CC=CCC2C1=O)c1cn(C)c2ccccc12 (stereo not drawn) -36.2%
